Experimental data taken from paper PMC4336329 (PLoS ONE, 2015).
Screen size: about 310,000 compounds; about 14,000 (4.5%) showed an effect of 50% or more. Effects have a minus sign here. The list shows a part of the results.

target: human ether-à-go-go-related gene (hERG) potassium channel (human, UniProt Q12809); assay: primary screen, population patch clamp on CHO cells stably expressing hERG
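Also: peak tail current of the secondary pulse compared with the same well before compound.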

human ether-à-go-go-related gene (hERG) potassium channel, sequence (Q12809 whole entry, looked up): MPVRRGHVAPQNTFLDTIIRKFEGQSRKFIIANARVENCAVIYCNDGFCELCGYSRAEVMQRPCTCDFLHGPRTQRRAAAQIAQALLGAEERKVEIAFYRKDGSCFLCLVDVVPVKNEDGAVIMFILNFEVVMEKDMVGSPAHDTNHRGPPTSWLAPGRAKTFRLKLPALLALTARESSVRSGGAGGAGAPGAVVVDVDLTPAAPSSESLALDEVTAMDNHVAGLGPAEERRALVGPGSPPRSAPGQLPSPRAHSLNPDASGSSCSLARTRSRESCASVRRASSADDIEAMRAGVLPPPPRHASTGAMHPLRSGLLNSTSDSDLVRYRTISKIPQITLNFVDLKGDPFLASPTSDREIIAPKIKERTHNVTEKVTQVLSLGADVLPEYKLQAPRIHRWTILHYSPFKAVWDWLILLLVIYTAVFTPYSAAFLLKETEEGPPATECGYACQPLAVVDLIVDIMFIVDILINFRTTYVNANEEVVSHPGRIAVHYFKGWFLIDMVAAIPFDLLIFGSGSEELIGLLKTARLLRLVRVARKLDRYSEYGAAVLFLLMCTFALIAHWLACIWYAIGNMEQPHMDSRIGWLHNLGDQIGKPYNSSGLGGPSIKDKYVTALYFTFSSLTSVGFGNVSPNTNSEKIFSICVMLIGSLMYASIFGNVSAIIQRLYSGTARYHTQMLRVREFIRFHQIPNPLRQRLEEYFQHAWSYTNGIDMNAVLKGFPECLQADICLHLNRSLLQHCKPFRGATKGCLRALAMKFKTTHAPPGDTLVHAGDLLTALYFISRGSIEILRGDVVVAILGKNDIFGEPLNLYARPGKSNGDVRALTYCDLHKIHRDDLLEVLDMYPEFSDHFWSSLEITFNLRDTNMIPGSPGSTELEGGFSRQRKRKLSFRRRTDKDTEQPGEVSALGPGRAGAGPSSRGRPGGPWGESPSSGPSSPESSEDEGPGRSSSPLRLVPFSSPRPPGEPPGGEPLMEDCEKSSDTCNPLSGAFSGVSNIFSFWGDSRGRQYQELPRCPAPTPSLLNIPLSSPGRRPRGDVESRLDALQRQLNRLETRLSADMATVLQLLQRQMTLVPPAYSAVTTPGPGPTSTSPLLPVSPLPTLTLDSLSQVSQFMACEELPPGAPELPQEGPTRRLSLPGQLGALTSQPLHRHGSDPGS

SMILES | hERG current change (%, negative = inhibition) at 10uM [%]
Cc1ccccc1OCC(=O)Nc1nnc(-c2ccco2)s1 | -11.2
Cc1cc(NC(=O)CCC(=O)N(Cc2ccccc2)C2(C(=O)NC3CCCCC3)CCCC2)no1 | 21.1
O=C(CCC1CCCN(C(=O)c2ccoc2)C1)NCc1ccc(F)c(F)c1 (stereo not drawn) | -15.6
CCCOc1ccc(C(=O)NNC(=S)NC(=O)c2ccco2)cc1 | 23.4
CC1Cc2ccccc2N1C(=O)/C=C/c1cccc(F)c1 (stereo not drawn) | -7.78
COc1ccc(CN2CCCCC2c2cccnc2)cc1C (stereo not drawn) | 0.438
C=CCOc1ccc(C=Nc2ccc(C)c(Cl)c2)c(O)c1 | -2.2
COc1ccc(NC(=O)Cc2ccccc2F)cn1 | -9.53
CCN(CC)CCCNc1nc(N)c([N+](=O)[O-])c(N2CCCCCC2)n1 | -30.3
CC(=O)Nc1ccc(NC(=O)CCNS(=O)(=O)c2cccc3nsnc23)cc1 | 18.6
COc1cccc(CNc2ccc([N+](=O)[O-])cc2C)c1 | -4.84
CC1(C)CC(=O)C2=C(C1)N=C1SCCC(=O)N1C2c1ccccc1 (stereo not drawn) | 4.24
CC1CCCN(CCCOc2ccc(Br)cc2Cl)C1.O=C(O)C(=O)O (stereo not drawn) | -78.4
Cc1cc(C)[n+](-c2ccc(C(C)C)cc2)c2[nH]c(=O)[nH]c(=O)c12.[I-] | 4.71
CCOC(=O)C1CCCCN1S(=O)(=O)c1cc2c(cc1C)NC(=O)CO2 (stereo not drawn) | -19.8
COc1cccc(C(=O)NCCS(=O)(=O)N2CCN(C(=O)c3ccco3)CC2)c1 | -28.6
Cl.OCCNCCNCc1ccccc1OCc1ccccc1 | 8.83
O=C1CCCc2c1cc(C(=O)O)c(=O)n2-c1ccccc1 | 13.9
O=C(CCSCc1cccc(Cl)c1)NC1CCCC1 | -3.11
Cn1cnc([N+](=O)[O-])c1Sc1ccc(Br)cc1 | -20
COc1ccccc1/C=C(/CC(=O)NCc1ccc(F)cc1)c1nc2ccccc2s1 | 1.37
CCOC(=O)c1c(N)n(C2CC(C)(C)NC(C)(C)C2)c2nc3ccccc3nc12 | -44.1

SMILES | hERG current change (%, negative = inhibition) at 10uM [%]
N#Cc1cn(-c2ccccc2)nc1C(=O)c1ccccc1 | -1.13
Cc1ccc(/C=N/Nc2nnc(Cl)c3ccccc23)cc1 | -13
O=C(Nc1ccc(N2CCCCC2)cc1)c1cccnc1 | 4.6
Cc1ccc(S(=O)(=O)N2CCC(C(=O)NCc3ccccc3Cl)CC2)cc1 | -4.47
Cc1cc(C)cc(OCC(=O)NCCc2nc3ccccc3[nH]2)c1 | -23
O=C(OCc1ccc([N+](=O)[O-])cc1)c1ccc(N2CCCC2)c([N+](=O)[O-])c1 | -14.3
O=C(O)c1ccccc1C(=O)NNc1cccc(Cl)n1 | 13.3
Cc1ccc(N2C(=O)NC(=O)C3(Cc4ccccc4N4CCCC43)C2=O)cc1 (stereo not drawn) | -12.5
Cc1c(Cl)cccc1NC(=O)CNC(=O)C1CC(=O)N(CCc2ccccc2)C1 (stereo not drawn) | 0.805
C=C(C)Cn1c(N2CCCC2)nc2c1c(=O)n(C)c(=O)n2C | 13.3
O=C1N=C(N2CCN(Cc3ccccc3)CC2)S/C1=C/c1cccs1 | -41.1
CCc1ccc(CNCCc2c[nH]c3ccccc23)cc1.O=C(O)C(=O)O | -40.9
O=C(O)CSc1nnc(CNc2ccccc2Cl)n1-c1ccccc1 | -7.12
O=C(Cn1cccc1)N1CCN(C(c2ccccc2)c2ccccc2)CC1 | -3.68
O=C1CC(N2CCN(c3ccccn3)CC2)C(=O)N1c1ccc(F)cc1 (stereo not drawn) | 14.7
COc1ccc(CCNC(=O)C2CC(=O)N(c3ccccc3)C2)cc1OC (stereo not drawn) | -2.19
CC(C)[C@H](NC(=O)c1ccccc1Cl)C(=O)Nc1nc(-c2ccccn2)cs1 | -8.03
CCn1c(C)c(C(C)=O)c(N2CCN(c3ccccc3)CC2)nc1=S | -1.65
O=C(N/C(=C\c1cccc([N+](=O)[O-])c1)C(=O)N1CCOCC1)c1ccc([N+](=O)[O-])cc1 | 12.5
COc1ccc2c(c1)c(C(=O)N/N=C/c1ccc(Br)cc1)c(C)n2C | -64.1
COc1ccc(Cl)cc1NC(=O)C1CC(=O)N(C2CCCCC2)C1 (stereo not drawn) | -2.08
Cc1ccc(S(=O)(=O)Cc2ccc(C(=O)N3CCN(Cc4ccccc4)CC3)o2)cc1 | -30.1

SMILES | hERG current change (%, negative = inhibition) at 10uM [%]
CCCCc1nc2cc(C(=O)N3CCN(c4cnccn4)CC3)ccc2o1 | -8.31
C=CCOc1ccccc1/C=c1\sc2nc(-c3oc4ccccc4c3C)nn2c1=O | -8.15
O=C1c2ccc(Cl)cc2S(=O)(=O)c2cccc(C(=O)N3CCC(Cc4ccccc4)CC3)c21 | 0.14
Cc1noc(/C=C/N(C)C)c1S(=O)(=O)N1CCN(c2ccccc2)CC1 | -4.87
CCOc1ccc(S(=O)(=O)NCc2ccncc2)cc1NC(=O)c1ccccc1 | -37.7
CCCC(=O)Nc1cc(C)c(NC(=O)c2ccccn2)cn1 | 5.43
Cc1ccc(OCC(=O)N/N=C/c2ccc([N+](=O)[O-])o2)cc1 | -39.8
CN(C)S(=O)(=O)c1cccc(NC(=O)CN2C(=O)NC(CCc3ccccc3)C2=O)c1 (stereo not drawn) | -7.36
O=C(C1CCCN(Cc2ccccc2Cl)C1)N1CCCCC1.O=C(O)C(=O)O (stereo not drawn) | 9.1
CC(C)(C)c1[nH]nc2c1C(c1ccncc1)C(C#N)=C(N)O2 (stereo not drawn) | 6.04
Cc1ccc(-c2nc(CN(C)C3CCOCC3)c(C)o2)s1 | -27.7
COc1ccc(/C(O)=C2/C(=O)C(=O)N(CC3CCCO3)C2c2cccc(OC)c2)cc1 (stereo not drawn) | 11.1
CC1CCN(S(=O)(=O)c2cccc(C(=O)Oc3ccc([N+](=O)[O-])cc3)c2)CC1 | -28.1
O=C(CCCSc1ccccc1)Nc1nc(-c2ccco2)c(-c2ccco2)s1 | -0.216
COc1cc2c(cc1OC)-c1c(OC)c(OC)cc3ccnc(c13)C2=O | -30.7
Cl.N=c1ccn(CC(=O)NC(N)=O)c2ccccc12 | -1.56
Cc1cccc(Nc2ccncc2S(N)(=O)=O)c1 | 0.246
NCC(c1ccccc1)c1c[nH]c2ccccc12 (stereo not drawn) | 13.2
O=C(CCN1C(=O)c2ccncc2C1=O)Nc1ccc2c(c1)OCCO2 | -4.56
CC(=O)Nc1ccc(S(=O)(=O)NCCC(=O)N2CCc3ccccc32)cc1 | 17.2
O=C(O)CSCC(=O)N1CCN(c2ncnc3scc(-c4ccccc4)c23)CC1 | 25.4
O=C(O)c1nccnc1C(=O)Nc1ccccc1-c1ccccc1 | -0.583

SMILES | hERG current change (%, negative = inhibition) at 10uM [%]
CCOC(=O)Cn1ccc(NC(=O)c2ccc3c(c2)OCO3)n1 | 6.64
Cc1cc(C)nc(NS(=O)(=O)c2ccc(NC(=O)c3ccccc3C)cc2)n1 | 15
O=C(CSc1nnc(CNC(=O)c2ccco2)o1)NC1CCCC1 | 0.367
COCCCNC(=O)c1ccc2c(=O)n(Cc3ccc(Cl)cc3)c(=S)[nH]c2c1 | 10.9
CC1(C)CC2CC(C)(CN2C(=S)Nc2ccccc2F)C1 (stereo not drawn) | 4.05
Cc1cc(=O)nc2c3ccccc3n(C(C)C(=O)NCCC(C)C)n12 (stereo not drawn) | 17.2
COc1ccc(CN(Cc2nc3ccccc3c(=O)[nH]2)C(=O)NC2CCCCC2)cc1 | -15.9
Cc1ccccc1OCC(O)CN1C(=O)c2ccccc2C1=O (stereo not drawn) | 4.28
COC(=O)CCCC(=O)NC1CCCc2c1cnn2-c1ccc(F)cc1F (stereo not drawn) | 17.3
O=C(CSc1nncn1-c1ccccc1)N1CCCC1 | 2.66
COc1cc(/C=C/C(=O)O)cc(S(=O)(=O)NC2CC2)c1OC | 0.679
O=C(CN(C(=O)CCC(=O)Nc1nccs1)c1ccccc1F)NCc1ccc2c(c1)OCO2 | 10.6
O=C(c1ccc(CS(=O)(=O)c2ccc(Br)cc2)o1)N1CCN(c2ncccn2)CC1 | -42.4
COc1ccc(C(=O)NCC2(c3ccc(OC)c(OC)c3)CCCC2)c(OC)c1 | -30.1
CC(=O)N(c1ccc(Cl)cc1)c1cn(C(C)=O)c2ccccc12 | -11.8
Cc1nc(-c2ccc(F)cc2)c(CC(=O)Nc2ccc(C)c(S(=O)(=O)N3CCOCC3)c2)s1 | -26.2
O=C1CCC(C(=O)Nc2cccc3ccccc23)N1 (stereo not drawn) | -1.25
CCOC(=O)c1c(CCl)nc2ccccc2c1-c1ccccc1 | 5.72
N#C/C(=C(/O)COC(=O)COc1cccc(Br)c1)c1nc2ccccc2[nH]1 | 12.5
Cc1cc(C)n(-c2cccc(C(=O)O)c2)n1 | 6.16
O=C1CCN(S(=O)(=O)c2ccccc2)CCN1CCOCc1cccc(F)c1 | -1.98
